Assay results: the supplement of paper PMC10338343
± gives the standard deviation. The list shows a part of the results, in another mix than the full data.

test system: MIWI (PIWIL1) piRISC loaded with L1MC piRNA (30 nt); test: pre-steady-state target cleavage rate (min^-1); MIWI and MILI are mouse PIWI proteins and EfPiwi is from a freshwater sponge; tags in brackets are library labels; higher = faster piRNA-guided slicing of the target; details: guide: L1MC piRNA 5'p-UAACUAAAUACUAUGCAAGCUGUAGGUCCU; auxiliary factor: 500 nM mouse GTSF1
Procedure, shortened: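 Active affinity-purified piRISC (1 nM) loaded with one synthetic guide was mixed with a transcribed, DNA-blocked target RNA library (0.1 nM), with or without 500 nM GTSF1 partner protein, in HEPES–potassium acetate buffer at 33 °C for 0–8 or 0–960 min. Uncleaved targets were sequenced, normalised to depth and to weakly complementary targets, and pooled across three trials, with k3 capped at 0.0001 min^-1. The pre-steady-state cleavage rate was determined with a burst-and-steady-state fit.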

Sequence	pre-steady-state target cleavage rate
UCCUGCUACAGGUAGCAUAGUAUUUAGUUA	1.27 ± 0.14
UCGACCUACAGCUUGCAUAGUAUUUAGUCA	0.947 ± 0.041
UGGACCUACAGCUUGCAUAGUAAUUUGUUA	0.395 ± 0.04
UGGACCUACUCCUUGCAUAGUAUUUAGUAA	0.329 ± 0.033
UCCUGCUACAGGUUGCAUUGUAUUUAGUUA	0.611 ± 0.073
UCCUGGAACAGCUAGCAUUGUAUUUAGUUA	0.489 ± 0.022
UCCUCCUACAGCUUGCUUAGUAUUUAGAUA	0.378 ± 0.038
UCGACCUAGAGCUUGCAUAGUAUUUACAAA	0.266 ± 0.038
UCCUGGAUCAGCUUUGCAUAGUAUUUAGUUA	1.05 ± 0.053
UCCUGCUACAGCUUGCAUAGUAUUUAAGUUA	1 ± 0.068
AGGACCUACAGCUUGCAUAGUAUUUUAGUUA	1.08 ± 0.058
UGGACCCACAGCUUGCAUAGUAUUUAGUUA	1.43 ± 0.091
UGGACCUUGAGCUUGCAUAGUAUUUAGUUA	0.98 ± 0.079
UCCACCUAGAGCUUGCAAAGUAUUUAGUUA	0.447 ± 0.037
UCCUGGAUGAGCUUGCAUUGUAAUUAGUUA	0.0377 ± 0.0067
UCGACGUACAGCUUGCAUAGUUUUUAGUUA	0.428 ± 0.016
UCCUGGAUGUGCUUGCAUAGUAUUUAUUUA	0.0715 ± 0.018
UCGACCUACAGCUAGCAUAGUAAUUAGUUA	0.852 ± 0.048
UCCUGCUACAGCUUGGAUAGUAUUUAGUAA	0.587 ± 0.057
UCCUGGUACAGCCUGCAUAGUAUUUAGUUA	0.549 ± 0.055

Sequence	pre-steady-state target cleavage rate
UCCUGGAACAGCUUGCAAUCUAUUUAGUUA	0.0462 ± 0.0065
UGGACCAACAGCUUGCAUAGUUUUUAGUUA	0.398 ± 0.019
UCGAGGAACAGCUUGCAUAGUAUUUAGAAA	0.572 ± 0.059
UCCUGGAUGUGCUUGCAUCGUAUUUAGUUA	0.0767 ± 0.014
UGGACCUACAGCUUGCAAAGUAUUUAGAUA	0.569 ± 0.048
UCCUGGAUGUGCUUGCAUAGUAUUUAGUGUA	0.202 ± 0.019
UCCUGCUAGAGCUUGCAUAGUAUUUAGUUA	0.49 ± 0.049
UCCUGGAAGAGCUUGCAUAGUAUAUAGUUA	0.446 ± 0.037
UCCUGGAACAGCUUGCAUACUAUUUUGUUA	0.134 ± 0.015
UCGACCUAGAGCUUGCAUAGUAAUUAGUUA	0.759 ± 0.052
AGGACCUACAGCUUGCAUAGUAUUCAGUUA	0.795 ± 0.066
UCCACCUACAGGUUGCAUACUAUUUAGUUA	0.319 ± 0.033
UCCUGCUACAGCUUGCAUAGUAUUUAGUA	0.422 ± 0.071
UCCUGCUACAGCUAGCAUAGUAUUUAGUUA	1.26 ± 0.094
UCCUGCUACAGGCUUGCAUAGUAUUUAGUUA	0.88 ± 0.043
UGGACCUACAGCUUGCAAACUAUUUAGUUA	0.345 ± 0.024
UGGACCUACAGGUUGCAUAGUAUUUUGUUA	0.638 ± 0.067
UCCUCCUACUGCUUCCAUAGUAUUUAGUUA	0.0668 ± 0.013
UCCUGCUACAGCUUAGCAUAGUAUUUAGUUA	1.25 ± 0.1

same assay, conditions: guide: L1MC piRNA 5'p-UAACUAAAUACUAUGCAAGCUGUAGGUCCU; auxiliary factor: none (no GTSF1)

Sequence	pre-steady-state target cleavage rate
UCCUGCUACAGGUAGCAUAGUAUUUAGUUA	0.00376 ± 0.0023
UCGACCUACAGCUUGCAUAGUAUUUAGUCA	0.0656 ± 0.013
UGGACCUACAGCUUGCAUAGUAAUUUGUUA	0.0154 ± 0.0037
UGGACCUACUCCUUGCAUAGUAUUUAGUAA	0.0227 ± 0.0056
UCCUGCUACAGGUUGCAUUGUAUUUAGUUA	0.0149 ± 0.0041
UCCUGGAACAGCUAGCAUUGUAUUUAGUUA	0.0104 ± 0.0037
UCCUCCUACAGCUUGCUUAGUAUUUAGAUA	0.00865 ± 0.0025
UCGACCUAGAGCUUGCAUAGUAUUUACAAA	0.0047 ± 0.0028
UCCUGGAUCAGCUUUGCAUAGUAUUUAGUUA	0.0153 ± 0.004
UCCUGCUACAGCUUGCAUAGUAUUUAAGUUA	0.0232 ± 0.0057
AGGACCUACAGCUUGCAUAGUAUUUUAGUUA	0.056 ± 0.014
UGGACCCACAGCUUGCAUAGUAUUUAGUUA	0.0699 ± 0.011
UGGACCUUGAGCUUGCAUAGUAUUUAGUUA	0.0437 ± 0.0096
UCCACCUAGAGCUUGCAAAGUAUUUAGUUA	0.0191 ± 0.0035
UCCUGGAUGAGCUUGCAUUGUAAUUAGUUA	0.00671 ± 0.003
UCGACGUACAGCUUGCAUAGUUUUUAGUUA	0.0269 ± 0.0059
UCCUGGAUGUGCUUGCAUAGUAUUUAUUUA	0.0169 ± 0.0037
UCGACCUACAGCUAGCAUAGUAAUUAGUUA	0.00739 ± 0.0019
UCCUGCUACAGCUUGGAUAGUAUUUAGUAA	0.0136 ± 0.0037
UCCUGGUACAGCCUGCAUAGUAUUUAGUUA	0.0521 ± 0.01

Sequence	pre-steady-state target cleavage rate
UCCUGGAACAGCUUGCAAUCUAUUUAGUUA	0.00409 ± 0.0037
UGGACCAACAGCUUGCAUAGUUUUUAGUUA	0.0421 ± 0.0087
UCGAGGAACAGCUUGCAUAGUAUUUAGAAA	0.00692 ± 0.0027
UCCUGGAUGUGCUUGCAUCGUAUUUAGUUA	0.0191 ± 0.0038
UGGACCUACAGCUUGCAAAGUAUUUAGAUA	0.0157 ± 0.0032
UCCUGGAUGUGCUUGCAUAGUAUUUAGUGUA	0.0278 ± 0.0068
UCCUGCUAGAGCUUGCAUAGUAUUUAGUUA	0.0297 ± 0.0053
UCCUGGAAGAGCUUGCAUAGUAUAUAGUUA	0.0148 ± 0.0034
UCCUGGAACAGCUUGCAUACUAUUUUGUUA	0.0133 ± 0.0031
UCGACCUAGAGCUUGCAUAGUAAUUAGUUA	0.0164 ± 0.0037
AGGACCUACAGCUUGCAUAGUAUUCAGUUA	0.0492 ± 0.0097
UCCACCUACAGGUUGCAUACUAUUUAGUUA	0.0189 ± 0.0029
UCCUGCUACAGCUUGCAUAGUAUUUAGUA	0.00464 ± 0.0019
UCCUGCUACAGCUAGCAUAGUAUUUAGUUA	0.0139 ± 0.0032
UCCUGCUACAGGCUUGCAUAGUAUUUAGUUA	0.0342 ± 0.0051
UGGACCUACAGCUUGCAAACUAUUUAGUUA	0.00874 ± 0.0027
UGGACCUACAGGUUGCAUAGUAUUUUGUUA	0.0242 ± 0.0046
UCCUCCUACUGCUUCCAUAGUAUUUAGUUA	0.00434 ± 0.00091
UCCUGCUACAGCUUAGCAUAGUAUUUAGUUA	0.00739 ± 0.0022
